The list shows a part of the results.
How the values were obtained:
Assay in all cases: glycan array binding signal (z-score within array); higher = stronger binding
Settings in all cases: glycan notation: IUPAC condensed, linker removed
[1] = molecular target: Fuc(a1-2)Gal6S(b1-3)GlcNAc
Method in brief: (§1)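 The Consortium for Functional Glycomics database supplied 3228 glycan arrays, of which those lacking an available protein sequence were dropped. The binding signal, a within-array Z-score, was averaged across arrays of the same protein sequence and across linkers. Negative scores can be read as non-binding.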

[2] = molecular target: Fuc(a1-2)Gal6S(b1-3)GlcNAc6S
Method in brief: as §1

[3] = molecular target: Fuc(a1-2)Gal6S(b1-4)Glc
Method in brief: as §1

[4] = molecular target: Fuc(a1-2)Gal6S(b1-4)Glc6S
Method in brief: as §1

[5] = molecular target: Fuc(a1-2)[Gal(a1-3)]Gal
Method in brief: as §1

[6] = molecular target: Fuc(a1-2)[Gal(a1-3)]Gal(b1-3)GalNAc
Method in brief: as §1

[7] = molecular target: Fuc(a1-2)[Gal(a1-3)]Gal(b1-3)GalNAc(b1-3)Gal(a1-4)Gal(b1-4)Glc
Method in brief: as §1

[8] = molecular target: Fuc(a1-2)[Gal(a1-3)]Gal(b1-3)GlcNAc
Method in brief: as §1

[9] = molecular target: Fuc(a1-2)[Gal(a1-3)]Gal(b1-3)GlcNAc(b1-2)Man(a1-3)[Fuc(a1-2)[Gal(a1-3)]Gal(b1-3)GlcNAc(b1-2)Man(a1-6)]Man(b1-4)GlcNAc(b1-4)GlcNAc
Method in brief: as §1

[10] = molecular target: Fuc(a1-2)[Gal(a1-3)]Gal(b1-3)GlcNAc(b1-2)Man(a1-3)[Fuc(a1-2)[Gal(a1-3)]Gal(b1-3)GlcNAc(b1-2)Man(a1-6)]Man(b1-4)GlcNAc(b1-4)[Fuc(a1-6)]GlcNAc
Method in brief: as §1

[11] = molecular target: Fuc(a1-2)[Gal(a1-3)]Gal(b1-3)GlcNAc(b1-3)GalNAc
Method in brief: as §1

[12] = molecular target: Fuc(a1-2)[Gal(a1-3)]Gal(b1-3)GlcNAc(b1-6)GalNAc
Method in brief: as §1

[13] = molecular target: Fuc(a1-2)[Gal(a1-3)]Gal(b1-4)Glc
Method in brief: as §1

[14] = molecular target: Fuc(a1-2)[Gal(a1-3)]Gal(b1-4)GlcNAc
Method in brief: as §1

[15] = molecular target: Fuc(a1-2)[Gal(a1-3)]Gal(b1-4)GlcNAc(b1-2)Man
Method in brief: as §1

[16] = molecular target: Fuc(a1-2)[Gal(a1-3)]Gal(b1-4)GlcNAc(b1-2)Man(a1-3)[Fuc(a1-2)[Gal(a1-3)]Gal(b1-4)GlcNAc(b1-2)Man(a1-6)]Man(b1-4)GlcNAc(b1-4)GlcNAc
Method in brief: as §1

[17] = molecular target: Fuc(a1-2)[Gal(a1-3)]Gal(b1-4)GlcNAc(b1-2)Man(a1-3)[Fuc(a1-2)[Gal(a1-3)]Gal(b1-4)GlcNAc(b1-2)Man(a1-6)]Man(b1-4)GlcNAc(b1-4)[Fuc(a1-6)]GlcNAc
Method in brief: as §1

[18] = molecular target: Fuc(a1-2)[Gal(a1-3)]Gal(b1-4)GlcNAc(b1-3)GalNAc
Method in brief: as §1

[19] = molecular target: Fuc(a1-2)[Gal(a1-3)]Gal(b1-4)GlcNAc(b1-3)[Fuc(a1-2)[Gal(a1-3)]Gal(b1-4)GlcNAc(b1-6)]GalNAc
Method in brief: as §1

[20] = molecular target: Fuc(a1-2)[Gal(a1-3)]Gal(b1-4)GlcNAc(b1-6)GalNAc
Method in brief: as §1

[21] = molecular target: Fuc(a1-2)[Gal(a1-3)]Gal(b1-4)[Fuc(a1-3)]Glc
Method in brief: as §1

[22] = molecular target: Fuc(a1-2)[Gal(a1-3)]Gal(b1-4)[Fuc(a1-3)]GlcNAc
Method in brief: as §1

[23] = molecular target: Fuc(a1-2)[Gal(a1-3)]Gal(b1-4)[Fuc(a1-3)]GlcNAc(b1-3)GalNAc
Method in brief: as §1

[24] = molecular target: Fuc(a1-2)[Gal(a1-4)]Gal(b1-4)GlcNAc
Method in brief: as §1

[25] = molecular target: Fuc(a1-2)[GalNAc(a1-3)]Gal
Method in brief: as §1

[26] = molecular target: Fuc(a1-2)[GalNAc(a1-3)]Gal(b1-3)GalNAc(a1-3)[Fuc(a1-2)]Gal(b1-4)GlcNAc
Method in brief: as §1

[27] = molecular target: Fuc(a1-2)[GalNAc(a1-3)]Gal(b1-3)GalNAc(b1-3)Gal(a1-4)Gal(b1-4)Glc
Method in brief: as §1

[28] = molecular target: Fuc(a1-2)[GalNAc(a1-3)]Gal(b1-3)GlcNAc
Method in brief: as §1

[29] = molecular target: Fuc(a1-2)[GalNAc(a1-3)]Gal(b1-3)GlcNAc(b1-2)Man(a1-3)[Fuc(a1-2)[GalNAc(a1-3)]Gal(b1-3)GlcNAc(b1-2)Man(a1-6)]Man(b1-4)GlcNAc(b1-4)GlcNAc
Method in brief: as §1

[30] = molecular target: Fuc(a1-2)[GalNAc(a1-3)]Gal(b1-3)GlcNAc(b1-2)Man(a1-3)[Fuc(a1-2)[GalNAc(a1-3)]Gal(b1-3)GlcNAc(b1-2)Man(a1-6)]Man(b1-4)GlcNAc(b1-4)[Fuc(a1-6)]GlcNAc
Method in brief: as §1

[31] = molecular target: Fuc(a1-2)[GalNAc(a1-3)]Gal(b1-3)GlcNAc(b1-3)GalNAc
Method in brief: as §1

[32] = molecular target: Fuc(a1-2)[GalNAc(a1-3)]Gal(b1-3)GlcNAc(b1-6)GalNAc
Method in brief: as §1

[33] = molecular target: Fuc(a1-2)[GalNAc(a1-3)]Gal(b1-4)Glc
Method in brief: as §1

[34] = molecular target: Fuc(a1-2)[GalNAc(a1-3)]Gal(b1-4)GlcNAc
Method in brief: as §1

[35] = molecular target: Fuc(a1-2)[GalNAc(a1-3)]Gal(b1-4)GlcNAc(b1-2)Man
Method in brief: as §1

[36] = molecular target: Fuc(a1-2)[GalNAc(a1-3)]Gal(b1-4)GlcNAc(b1-2)Man(a1-3)[Fuc(a1-2)[GalNAc(a1-3)]Gal(b1-4)GlcNAc(b1-2)Man(a1-6)]Man(b1-4)GlcNAc(b1-4)GlcNAc
Method in brief: as §1

[37] = molecular target: Fuc(a1-2)[GalNAc(a1-3)]Gal(b1-4)GlcNAc(b1-2)Man(a1-3)[Fuc(a1-2)[GalNAc(a1-3)]Gal(b1-4)GlcNAc(b1-2)Man(a1-6)]Man(b1-4)GlcNAc(b1-4)[Fuc(a1-6)]GlcNAc
Method in brief: as §1

[38] = molecular target: Fuc(a1-2)[GalNAc(a1-3)]Gal(b1-4)GlcNAc(b1-3)Gal(b1-4)GlcNAc
Method in brief: as §1

[39] = molecular target: Fuc(a1-2)[GalNAc(a1-3)]Gal(b1-4)GlcNAc(b1-3)Gal(b1-4)GlcNAc(b1-3)Gal(b1-4)GlcNAc
Method in brief: as §1

[40] = molecular target: Fuc(a1-2)[GalNAc(a1-3)]Gal(b1-4)GlcNAc(b1-3)GalNAc
Method in brief: as §1

[41] = molecular target: Fuc(a1-2)[GalNAc(a1-3)]Gal(b1-4)GlcNAc(b1-3)[Fuc(a1-2)[GalNAc(a1-3)]Gal(b1-4)GlcNAc(b1-6)]GalNAc
Method in brief: as §1

[42] = molecular target: Fuc(a1-2)[GalNAc(a1-3)]Gal(b1-4)GlcNAc(b1-6)GalNAc
Method in brief: as §1

[43] = molecular target: Fuc(a1-2)[GalNAc(a1-3)]Gal(b1-4)[Fuc(a1-3)]GlcNAc
Method in brief: as §1

[44] = molecular target: Fuc(a1-2)[GalNAc(a1-3)]Gal(b1-4)[Fuc(a1-3)]GlcNAc(b1-3)GalNAc
Method in brief: as §1

[45] = molecular target: Fuc(a1-2)[GalNAc(a1-4)]Gal(b1-4)GlcNAc
Method in brief: as §1

B1: Banana lectin (Musa acuminata) (protein)
chain: MNGAIKVGAWGGNGGSAFDMGPAYRIISVKIFSGDVVDAVDVTFTYYGKTETRHFGGSGGTPHEIVLQEGEYLVGMKGEFGNYHGVVVVGKLGFSTNKKSYGPFGNTGGTPFSLPIAAGKISGFFGRGGDFIDAIGVYLEP
glycan array binding signal (z-score) [1]: -0.192
glycan array binding signal (z-score) [2]: -0.187
glycan array binding signal (z-score) [3]: -0.193
glycan array binding signal (z-score) [4]: -0.189
glycan array binding signal (z-score) [5]: -0.194
glycan array binding signal (z-score) [6]: -0.193
glycan array binding signal (z-score) [7]: -0.195
glycan array binding signal (z-score) [8]: -0.194
glycan array binding signal (z-score) [9]: 0.003
glycan array binding signal (z-score) [10]: 0.122
glycan array binding signal (z-score) [11]: -0.194
glycan array binding signal (z-score) [12]: -0.195
glycan array binding signal (z-score) [13]: -0.195
glycan array binding signal (z-score) [14]: -0.192
glycan array binding signal (z-score) [15]: -0.195
glycan array binding signal (z-score) [16]: -0.075
glycan array binding signal (z-score) [17]: 0.098
glycan array binding signal (z-score) [18]: -0.195
glycan array binding signal (z-score) [19]: -0.188
glycan array binding signal (z-score) [20]: -0.194
glycan array binding signal (z-score) [21]: -0.192
glycan array binding signal (z-score) [22]: -0.194
glycan array binding signal (z-score) [23]: -0.195
glycan array binding signal (z-score) [24]: -0.206
glycan array binding signal (z-score) [25]: -0.194
glycan array binding signal (z-score) [26]: -0.205
glycan array binding signal (z-score) [27]: -0.194
glycan array binding signal (z-score) [28]: -0.193
glycan array binding signal (z-score) [29]: -0.149
glycan array binding signal (z-score) [30]: 0.244
glycan array binding signal (z-score) [31]: -0.188
glycan array binding signal (z-score) [32]: -0.195
glycan array binding signal (z-score) [33]: -0.193
glycan array binding signal (z-score) [34]: -0.194
glycan array binding signal (z-score) [35]: -0.195
glycan array binding signal (z-score) [36]: -0.058
glycan array binding signal (z-score) [37]: 0.117
glycan array binding signal (z-score) [38]: -0.193
glycan array binding signal (z-score) [39]: -0.189
glycan array binding signal (z-score) [40]: -0.192
glycan array binding signal (z-score) [41]: -0.193
glycan array binding signal (z-score) [42]: -0.193
glycan array binding signal (z-score) [43]: -0.193
glycan array binding signal (z-score) [44]: -0.19
glycan array binding signal (z-score) [45]: -0.195

— the supplement of paper PMC8728848
